# PubChem BioAssay AID1476 (National Center for Advancing Translational Sciences (NCATS), 2009)
# The whole screen tested about 200,000 compounds, of which about 4,500 (2.2%) were called active. Inconclusive results, whose numbers are uncertain, are shown with a selection of clear calls. Calls come from the whole dose curve; as a rule, active = well fitted inhibition curve with a large enough effect; inconclusive = small, poorly fitted or top-dose-only effect, or effect the other way; inactive = flat fitted curve, though single readings scatter. Potencies of inconclusive entries are doubtful fits and often do not repeat.
# Target: Cruzipain (Trypanosoma cruzi) (UniProt P25779)
# Experiment: qHTS Assay for Promiscuous and Specific Inhibitors of Cruzain (without detergent); note: nearly all actives have a fitted effect of over 40% in size;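 for max response, negative = inhibition: plate controls were enzyme without inhibitor for no effect and buffer without enzyme for full effect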
# Settings: purified cruzain, Z-FR-AMC fluorescence, no detergent
# How it was run: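 Purified cruzain at 1.5 nM, pre-incubated 15 min with compound at room temperature in 100 mM sodium acetate pH 5.5, 5 mM DTT, 0.00005% Triton X-100. Reaction started with 2 uM Z-FR-AMC; AMC fluorescence increase over 60 s gives rate.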
# Potency is the fitted concentration of half-maximal effect; tags give direction and shape of the fitted curve.
# UniProt P25779, sequence (P25779 whole entry, looked up): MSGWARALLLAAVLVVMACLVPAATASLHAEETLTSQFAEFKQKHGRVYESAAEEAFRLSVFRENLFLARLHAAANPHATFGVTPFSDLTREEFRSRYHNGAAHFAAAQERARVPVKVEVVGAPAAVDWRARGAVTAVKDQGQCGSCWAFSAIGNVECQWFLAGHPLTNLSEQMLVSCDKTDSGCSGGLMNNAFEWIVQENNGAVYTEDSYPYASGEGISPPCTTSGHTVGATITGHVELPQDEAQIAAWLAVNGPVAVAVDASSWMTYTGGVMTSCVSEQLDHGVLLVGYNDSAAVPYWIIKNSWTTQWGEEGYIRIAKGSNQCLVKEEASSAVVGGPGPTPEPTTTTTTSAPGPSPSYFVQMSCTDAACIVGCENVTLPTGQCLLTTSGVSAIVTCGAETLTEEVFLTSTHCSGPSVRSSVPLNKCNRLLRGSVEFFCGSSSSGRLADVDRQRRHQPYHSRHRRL
Compound,Potency,"max response, negative = inhibition"
O=C(NC1CCCC1)C(c1c[nH]c2ccccc12)N(C(=O)Cn1nnc(-c2ccc(Cl)cc2)n1)c1ccccc1 (centres undefined),"inconclusive: 39.8 µM [inhibitor, single point]",
O=c1cc(NS(=O)(=O)c2ccccc2)nc(SCc2ccc(Cl)cc2)[nH]1,"inconclusive: 39.8 µM [inhibitor, single point]",
COC(=O)c1ccc(C(NC(=O)OCc2ccccc2)/C(=C/[C@@H](C)C(=O)NCc2ccc(-c3ccccc3)cc2)c2cccnc2)cc1 (some centres undefined),,inactive: -22.1%
Cc1ccc(OC(=O)CCC(=O)OCCCC(F)(F)C(F)(F)F)cc1,"inconclusive: 0.251 µM [inhibitor, full curve, poor fit]",
CN(C)c1ccc(/C=C/C=C2/SC(=S)N(c3ccccc3)C2=O)cc1,active: 7.94 µM,
COc1cc(C(C(=O)NC2CCCCC2)N(C(=O)Cc2c[nH]c3ccccc23)c2ccccc2C)cc(OC)c1OC (centres undefined),"inconclusive: 31.6 µM [activator, single point]",
Cc1ccc(CNC(=O)CN2C(=O)C3(SCC(=O)N3c3ccc(F)c(F)c3)c3ccccc32)cc1 (centres undefined),,inactive: 1.77%
Cc1ccc(NC(=O)CSc2nnc(-c3cccnc3)n2-c2ccc(C)cc2)cc1,"inconclusive: 25.1 µM [activator, single point]",
Cc1cccc2sc(N(Cc3cccnc3)C(=O)C3COc4ccccc4O3)nc12 (centres undefined),,inactive: -7.97%
CCOC(=O)c1ccc(N2C(=O)CC(NC3CCN(C(=O)c4cccc(Cl)c4)CC3)C2=O)cc1 (centres undefined),"inconclusive: 31.6 µM [activator, single point]",
O=C(Cn1c(=O)oc2cc(S(=O)(=O)N3CCCCC3)ccc21)NCc1ccc(F)cc1,"inconclusive: 25.1 µM [activator, single point]",
Cc1cc(C(=O)NCCCn2ccnc2)sc1-c1ccccc1,"inconclusive: 2 µM [inhibitor, partial curve]",
CCc1ccc(NC(=O)CSc2ncc(S(=O)(=O)c3cc(C)ccc3C)c(=O)[nH]2)cc1,"inconclusive: 31.6 µM [activator, single point]",
COC(=O)c1c(NC(=O)CSc2nnc(Cn3nnc4ccccc43)n2C)sc(C)c1C,"inconclusive: 31.6 µM [activator, single point]",
COC(=O)CNC(c1ccccc1)c1cc(Br)ccc1NS(=O)(=O)c1ccc(C)cc1 (centres undefined),"inconclusive: 39.8 µM [inhibitor, single point]",
O=C(c1ccccc1)[C@@H]1[C@@H](C(=O)c2ccc(F)cc2)[C@@]2(C(=O)Nc3ccccc32)[C@H]2c3ccccc3C=CN12,"inconclusive: 31.6 µM [inhibitor, single point]",
CC(=O)Nc1ccc(NC(=O)c2cc(-c3ccc4c(c3)OCCO4)on2)cc1,,inactive: -8.29%
O=C(Nc1nnc(C2CCCCC2)s1)c1ccc(Br)s1,active: 25.1 µM,
O=[N+]([O-])c1cc2c(c(CSc3nnnn3-c3ccc(O)cc3)c1)OCOC2,"inconclusive: 39.8 µM [inhibitor, single point]",
COc1ccc(/C(O)=C2\C(=O)C(=O)N(c3cc(C)on3)C2c2ccc(OC)c(OC)c2)cc1OC (centres undefined),"inconclusive: 39.8 µM [activator, single point]",
CCCC1=Nc2cc(C(=O)NCCOC)ccc2Sc2ccccc21,"inconclusive: 39.8 µM [activator, single point]",

Compound,Potency,"max response, negative = inhibition"
Oc1c(C(c2ccccc2F)N2CCCC2)sc2nc(-c3ccco3)nn12 (centres undefined),"inconclusive: 0.0316 µM [activator, full curve, poor fit]",
O=C1CCCc2[nH]nc(-c3cccnc3)c21,,inactive: -10.4%
CCn1nc(C)c(NC(=O)CCSc2nc(-c3ccco3)cc(C(F)(F)F)n2)c1C,"inconclusive: 25.1 µM [activator, single point]",
Fc1ccc(C2=Nn3c(Cc4ccccc4F)nnc3SC2)cc1,"inconclusive: 39.8 µM [inhibitor, single point]",
CN(C)c1ccc(/C=N/c2cc(-c3ccccc3)nn2-c2ccccc2)cc1,active: 20 µM,
Cc1ccc(CCNC(=O)CCn2nc(-c3ccc(C)cc3)ccc2=O)cc1,"inconclusive: 25.1 µM [activator, partial curve]",
CCN(CC)CCSc1nnc2c3cc(F)ccc3n(CC)c2n1,active: 25.1 µM,
COc1cc(OC)c2c(-c3cccc(-c4ccc(OC(F)(F)F)cc4)c3)cc(=O)oc2c1,"inconclusive: 14.1 µM [inhibitor, partial curve, poor fit]",
CC(C)(C)C(=O)Nc1cccc(-c2nnc(-c3cccc(NC(=O)C(C)(C)C)c3)o2)c1,"inconclusive: 31.6 µM [activator, single point]",
O=C(OCc1ccccc1)/C(=C/c1cccc2ccccc12)NC(=O)c1ccccc1,"inconclusive: 39.8 µM [inhibitor, single point]",
CCOC(=O)c1ccc(-c2ccc(/C=C(\C#N)C(=O)Nc3ccc(C)cc3)o2)cc1,,inactive: -9.9%
COc1cc(CN(C(=O)c2ccc(Cl)cc2)C2CCS(=O)(=O)C2)cc(OC)c1OC (centres undefined),,inactive: 3.12%
CCN(CC)S(=O)(=O)c1ccc(N2CCCCS2(=O)=O)cc1,"inconclusive: 3.16 µM [activator, single point]",
CCOc1ccc(OCC)c(NC(=O)C2CCN(S(=O)(=O)c3cccc4nonc34)CC2)c1,"inconclusive: 39.8 µM [activator, single point]",
c1ccc(-c2csc(Nc3ccc4c(c3)OCCO4)n2)cc1,"inconclusive: 31.6 µM [inhibitor, single point]",
Cc1nc(C(=O)Nc2ccc(Cl)cc2Cl)nn1-c1cc(OC(C)C)c(Cl)cc1Cl,active: 25.1 µM,
O=c1c2sc3ccccc3c2n(Cc2ccc(F)cc2Cl)c(=O)n1Cc1ccccc1,,inactive: 7.07%
CCP(=O)(CC)C(C)(C)CP(=O)(c1ccccc1)c1ccccc1,"inconclusive: 39.8 µM [inhibitor, single point]",
Cc1nn(-c2ccccc2)c(Cl)c1C1C(C#N)=C(N)Oc2c1c(=O)oc1ccccc21 (centres undefined),active: 15.8 µM,
COc1ccc(Cn2nnnc2C(c2cccs2)N2CCN(c3ccccc3)CC2)cc1 (centres undefined),,inactive: 8.78%
Cc1ccc(Cl)cc1N1CCN(C(=O)CCS(=O)(=O)c2ccc3c(c2)oc(=O)n3C)CC1,"inconclusive: 39.8 µM [activator, single point]",

Compound,Potency,"max response, negative = inhibition"
COCCn1nnnc1C(c1cc2cc(OC)ccc2[nH]c1=O)N1CCC(Cc2ccccc2)CC1 (centres undefined),"inconclusive: 31.6 µM [activator, partial curve]",
CCOc1ccc(CNCc2c(C(=O)O)n(Cc3ccccc3C)c3cc(OC)ccc23)cc1OC,,inactive: 1.06%
CC(CNC(=O)C1CCN(C(=O)c2cc3sccc3n2C)CC1)c1ccccc1 (centres undefined),"inconclusive: 25.1 µM [activator, single point]",
O=C(Cn1c(O)c(/C=C2\C=Nc3ccc(Br)cc32)sc1=O)N1CCCC1,"inconclusive: 12.6 µM [inhibitor, partial curve, poor fit]",
Cc1ccc(N(C(=O)C(F)(F)F)C(C(=O)NC2CCCCC2)c2ccncc2)cc1C (centres undefined),"inconclusive: 39.8 µM [inhibitor, single point]",
CCC(C(=O)NC1CCCCC1)n1c(SCc2cccc(F)c2)nc2ccncc21 (centres undefined),"inconclusive: 20 µM [inhibitor, single point]",inactive: -9.62%
CC1=CC(C)(C)N2C(=O)C3(C(C#N)=C(N)OC4=C3C(=O)CC(C)(C)C4)c3c(C)c(C)cc1c32 (centres undefined),"inconclusive: 31.6 µM [activator, single point]",
Cc1ccc(S(=O)(=O)C(CNS(=O)(=O)c2ccc(F)c(C(F)(F)F)c2)c2ccco2)cc1 (centres undefined),,inactive: 17.4%
COc1ccc(C2/C=C\CN(C(=O)OCC3c4ccccc4-c4ccccc43)CC(=O)N2Cc2cccc(F)c2)cc1 (centres undefined),active: 25.1 µM,
CCOc1ccccc1Nc1sc(C(=O)c2ccc(Cl)cc2)c(N)c1S(=O)(=O)c1ccccc1,active: 3.16 µM,
O=C(CSc1ncc2c(n1)-c1ccccc1N(Cc1ccc(Cl)cc1)S2(=O)=O)c1ccccc1,,inactive: 10.2%
Cc1nnc(NC(=O)CSc2nc(C3CCCCC3)nc3ccccc23)s1,"inconclusive: 39.8 µM [inhibitor, single point]",
CCOc1ccccc1Oc1nc(C)nc2c1oc1ccccc12,"inconclusive: 31.6 µM [activator, single point]",
Cc1ccc(CCNC(=O)CC2Oc3ccc(C)cc3NC2=O)cc1 (centres undefined),"inconclusive: 39.8 µM [inhibitor, single point]",
CCOC(=O)c1c(C)[nH]c(C)c1S(=O)(=O)NCC(=O)NCc1ccccc1C,,inactive: 7.94%
CCN(C(=O)CCc1nc(-c2ccc(OC)cc2)no1)c1cc(OC)ccc1OC,"inconclusive: 39.8 µM [activator, single point]",
O=C1C2C=CC=CC2=NC(=S)N1CCN1CCC(=C(c2ccc(F)cc2)c2ccc(F)cc2)CC1 (centres undefined),active: 12.6 µM,
Cc1ccc(-c2nc(CS(=O)CC(=O)NCCc3ccc(Cl)cc3)c(C)o2)cc1 (centres undefined),"inconclusive: 39.8 µM [activator, single point]",
CC(CNC(=O)CCCn1c(=O)c2cccn2c2ccc(F)cc21)c1ccccc1 (centres undefined),active: 15.8 µM,
CC(=NCCO)c1c(O)n(C)c(=O)n(C)c1=O,"inconclusive: 31.6 µM [activator, single point]",
COc1ccc2nc(/C=N/NC(=O)[C@H](C)NC(=O)OC(C)(C)C)ccc2c1,active: 31.6 µM,
